Sequences and labels used below:
B1: GPR68, Q15743 (parent)
chain: MGNITADNSSMSCTIDHTIHQTLAPVVYVTVLVVGFPANCLSLYFGYLQIKARNELGVYLCNLTVADLFYICSLPFWLQYVLQHDNWSHGDLSCQVCGILLYENIYISVGFLCCISVDRYLAVAHPFRFHQFRTLKAAVGVSVVIWAKELLTSIYFLMHEEVIEDENQHRVCFEHYPIQAWQRAINYYRFLVGFLFPICLLLASYQGILRAVRRSHGTQKSRKDQIQRLVLSTVVIFLACFLPYHVLLLVRSVWEASCDFAKGVFNAYHFSLLLTSFNCVADPVLYCFVSETTHRDLARLRGACLAFLTCSRTGRAREAYPLGAPEASGKSGAQGEEPELLTKLHPAFQTPNSPGSGGFPTGRLA

In series [1] the parent is B1. Description: cAMP reporter score (Enrich2 score, wild type = 0); higher = more signal; HEK293T, FACS bins.
Series [2] covers variants of B1. Kind of series: surface expression score (Enrich2 score, wild type = 0); higher = more signal; HEK293T, FACS bins.

Scores whose standard error is large were omitted. Two further conditions of the source, in which the scores hardly spread, are not listed. In variant names, del marks residues removed and ins residues inserted between the two positions. For part of these data: How much ogerin was present is not stated here.

Consider Y28_V29insGS, for which the cAMP reporter score was -0.936 in series [1] (pH 5.5); -1.43 in series [1] (pH 6, modulator: ogerin); -0.425 in series [1] (pH 6.5, modulator: ogerin). In addition, the surface expression score in series [2] was -1.89.
Take P25_V26insGS: the cAMP reporter score in series [1] (pH 5.5) is -2.12; in series [1] (pH 6), -0.405; in series [1] (pH 6, modulator: ogerin) it was -1.48; in series [1] (pH 6.5, modulator: ogerin), -1.1. For the same variant, in series [2], the surface expression score was -1.91.
As for Y28_T30del, the cAMP reporter score in series [1] (pH 5.5) is -1.4; in series [1] (pH 6), -0.791; in series [1] (pH 6, modulator: ogerin) it was -1.8; in series [1] (pH 6.5, modulator: ogerin), -1.22. The surface expression score in series [2] is -2.26.
The corresponding values for V31_L32insGS are -1.02, -0.888, -1.68, -1.07 and -2.3.
For Y28del, the cAMP reporter score in series [1] (pH 5.5) is -1.12; in series [1] (pH 6), -0.769; in series [1] (pH 6.5, modulator: ogerin) it was -0.031. Moreover, the surface expression score in series [2] was -2.57.
For the variant F36_P37insGS, the cAMP reporter score in series [1] (pH 5.5) was -1.19; in series [1] (pH 6), 0.063; in series [1] (pH 6, modulator: ogerin), -1.41; in series [1] (pH 6.5, modulator: ogerin) it was -0.22. For the same variant, the surface expression score in series [2] is -2.51.
Turning to Y28_V29insG, the cAMP reporter score in series [1] (pH 5.5) was -1.64; in series [1] (pH 6), -0.961; in series [1] (pH 6, modulator: ogerin), -2.48; in series [1] (pH 6.5, modulator: ogerin), -1.24. Further, the surface expression score in series [2] is -2.58.
The corresponding values for A38_N39del are -1.61, -0.734, -1.38, -1.25 and -2.32.
The corresponding values for V26Q are -1.44, -1.49, -1.58, -1.97 and -2.35.
The corresponding values for V26D are -1.09, -0.615, -1.54, -1.83 and -2.75.
As for V26Y, the cAMP reporter score was 0.06 in series [1] (pH 5.5); -0.899 in series [1] (pH 6); -0.782 in series [1] (pH 6, modulator: ogerin); -0.765 in series [1] (pH 6.5, modulator: ogerin). In addition, the surface expression score in series [2] is 0.059.
For V26C, the cAMP reporter score is -0.234 in series [1] (pH 5.5); 0.607 in series [1] (pH 6); -0.564 in series [1] (pH 6, modulator: ogerin); 0.402 in series [1] (pH 6.5, modulator: ogerin).
For the variant V26L, the cAMP reporter score in series [1] (pH 5.5) came out at 1.3; in series [1] (pH 6), 1.91; in series [1] (pH 6, modulator: ogerin) it was 1.53; in series [1] (pH 6.5, modulator: ogerin), 1.98. For the same variant, the surface expression score in series [2] came out at 2.23.
Take V26P: the cAMP reporter score is -0.231 in series [1] (pH 5.5); -0.683 in series [1] (pH 6); -0.602 in series [1] (pH 6, modulator: ogerin); -1.73 in series [1] (pH 6.5, modulator: ogerin). Moreover, the surface expression score in series [2] was -2.56.
Regarding V26T, the cAMP reporter score is 0.737 in series [1] (pH 5.5); 0.643 in series [1] (pH 6); 0.597 in series [1] (pH 6, modulator: ogerin); -0.019 in series [1] (pH 6.5, modulator: ogerin).
V26W: the cAMP reporter score in series [1] (pH 5.5) worked out at 0.549; in series [1] (pH 6), 1.41; in series [1] (pH 6, modulator: ogerin), 1.04; in series [1] (pH 6.5, modulator: ogerin) it was 1.42. For the same variant, the surface expression score in series [2] came to 2.26.
Consider V26A, for which the cAMP reporter score in series [1] (pH 5.5) is -0.475; in series [1] (pH 6), -0.116; in series [1] (pH 6, modulator: ogerin) it was 0.105; in series [1] (pH 6.5, modulator: ogerin), -0.051. Moreover, the surface expression score in series [2] was -0.098.
The corresponding values for V26I are 0.91, 0.257, 0.768, 0.547 and 1.49.
Turning to V26F, the cAMP reporter score amounted to 0.319 in series [1] (pH 5.5); 0.086 in series [1] (pH 6); 0.587 in series [1] (pH 6, modulator: ogerin); 0.4 in series [1] (pH 6.5, modulator: ogerin). The surface expression score in series [2] was determined as 0.69.
Take V26E: the cAMP reporter score in series [1] (pH 5.5) was -0.413; in series [1] (pH 6) it was 0.176; in series [1] (pH 6, modulator: ogerin) it was -1.02; in series [1] (pH 6.5, modulator: ogerin), -0.428.
For the variant V26N, the cAMP reporter score is -1.41 in series [1] (pH 5.5); -0.288 in series [1] (pH 6); -1.86 in series [1] (pH 6, modulator: ogerin); -0.516 in series [1] (pH 6.5, modulator: ogerin). In series [2], the surface expression score was -2.27.
For the variant V26G, the cAMP reporter score in series [1] (pH 5.5) is -0.542; in series [1] (pH 6), -1.29; in series [1] (pH 6, modulator: ogerin) it was -1.1; in series [1] (pH 6.5, modulator: ogerin), -1.3.
V26M: the cAMP reporter score was -0.368 in series [1] (pH 5.5); -0.092 in series [1] (pH 6); -0.183 in series [1] (pH 6, modulator: ogerin); -0.153 in series [1] (pH 6.5, modulator: ogerin). The surface expression score in series [2] is -0.277.
Consider G35_F36insGS, for which the cAMP reporter score in series [1] (pH 5.5) was -1.23; in series [1] (pH 6), -0.93; in series [1] (pH 6, modulator: ogerin), -0.382; in series [1] (pH 6.5, modulator: ogerin) it was -0.44. For the same variant, the surface expression score in series [2] is -2.51.
Regarding Y28Q, the cAMP reporter score in series [1] (pH 5.5) is -0.95; in series [1] (pH 6, modulator: ogerin), -2.07; in series [1] (pH 6.5, modulator: ogerin), -1.6. Besides, in series [2], the surface expression score is -1.88.
Take Y28S: the cAMP reporter score in series [1] (pH 5.5) was -1.75; in series [1] (pH 6), -1.91; in series [1] (pH 6, modulator: ogerin), -1.38; in series [1] (pH 6.5, modulator: ogerin) it was -1.39.
Consider Y28R, for which the cAMP reporter score in series [1] (pH 5.5) was -0.674; in series [1] (pH 6) it was 0.268; in series [1] (pH 6, modulator: ogerin) it was -0.508; in series [1] (pH 6.5, modulator: ogerin), 0.734. For the same variant, the surface expression score in series [2] is -1.72.
Y28P: the cAMP reporter score in series [1] (pH 5.5) is -1.4; in series [1] (pH 6), -0.955; in series [1] (pH 6, modulator: ogerin), -1.49; in series [1] (pH 6.5, modulator: ogerin) it was -0.568. For the same variant, the surface expression score in series [2] was -2.1.
Take Y28L: the cAMP reporter score is -0.668 in series [1] (pH 5.5); -0.031 in series [1] (pH 6); -1.6 in series [1] (pH 6, modulator: ogerin); -0.286 in series [1] (pH 6.5, modulator: ogerin). For the same variant, the surface expression score in series [2] came to 1.74.
With Y28F, the cAMP reporter score in series [1] (pH 5.5) was -0.415; in series [1] (pH 6) it was -1.07; in series [1] (pH 6, modulator: ogerin), -0.54; in series [1] (pH 6.5, modulator: ogerin), -0.999. In series [2], the surface expression score came out at 0.53.
The corresponding values for Y28W are 0.846, -0.233, 0.384, -0.545 and 1.62.
